Test results as given in the antibiotic and cytotoxicity screens of Wong et al. (2023).
Some of the results follow.

How the values were obtained:
HSkMC = human skeletal muscle cells; experiment: cytotoxicity call (relative viability < 0.9); settings: 10 µM
HepG2 = experiment: cytotoxicity call (relative viability < 0.9); settings: 10 µM
S. aureus RN4220 = experiment: growth inhibition call (relative growth <= 0.2); settings: 50 µM

Row | Structure (SMILES) | cytotoxicity call (HSkMC) | cytotoxicity call (HepG2) | growth inhibition call (S. aureus RN4220)
1 | CC(C)(C)C(=O)OCOP(=O)(COCCn1cnc2c(N)ncnc21)OCOC(=O)C(C)(C)C | inactive | active | inactive
2 | C[C@@H]1CN([C@@H](C)CO)C(=O)c2cc(NS(C)(=O)=O)ccc2O[C@@H](C)CCCCO[C@H]1CN(C)C(=O)Nc1ccc(C(F)(F)F)cc1 | inactive | inactive | inactive
3 | Cc1ccc(CNS(=O)(=O)N(C)C)cc1 | inactive | inactive | inactive
4 | N[C@@H](CCc1ccccc1Cl)c1ccc2c(c1)OCCO2 | inactive | active | inactive
5 | CO[C@H]1/C=C\O[C@@]2(C)Oc3c(C)c(O)c4c(c3C2=O)[C@]2(C=C(NC(=O)/C(C)=C\C=C/[C@@H](C)[C@@H](O)[C@@H](C)[C@@H](O)[C@@H](C)[C@@H](OC(C)=O)[C@@H]1C)C4=O)OCC(=O)O2 | active | inactive | active
6 | Nc1cc([N+](=O)[O-])ccc1C(=O)O | inactive | inactive | inactive
7 | Cc1ccc([C@@H](CN)c2c[nH]c3ccccc23)o1 | inactive | inactive | inactive
8 | CC(=O)NCc1nnnn1-c1ccc(C)cc1 | inactive | inactive | inactive
9 | CO[C@H](CN(C)S(=O)(=O)c1cccc(Cl)c1)[C@H](C)CN([C@H](C)CO)S(=O)(=O)c1cccc(Cl)c1 | inactive | inactive | inactive
10 | Cc1noc(C)c1NC(=O)N(C)C[C@H]1Oc2ccc(NC(=O)Nc3ccc(C(F)(F)F)cc3)cc2C(=O)N([C@@H](C)CO)C[C@@H]1C | inactive | inactive | inactive
11 | Nc1nc(N)c2nc(CNc3ccc(C(=O)NC(CCC(=O)O)C(=O)O)cc3)cnc2n1 (stereo not drawn) | inactive | active | inactive
